Results: patent US8999921B2, “Process for diagnosing rheumatic diseases” (Cypress Bioscience, Inc., priority 2005, dated 2015)

Test system: autoantibodies to mutated vimentin
Assay: Indirect enzyme immunoassay (ELISA) with mutated vimentin as detection antigen
Assay type: binding, human
Conditions: diluted 1:100
Description: A recombinant, mutated variant of native vimentin of Example 1 (SEQ 9) was expressed in E. coli and purified by means of affinity chromatography using the His-tag. A 2 mg/ml solution of the purified protein was pretreated with unfolding buffer (50 mM Tris, 2 M guanidine hydrochloride, 5 mM CaCl2, 2 mM DTT, 0.5 mM EDTA, 5 mM methylammonium chloride, pH 7.4), and for at least 14 hours at 4° C., and subsequently diluted 1:1000 in PBS. 100 μl of this solution were introduced to the cavities of a microtiter plate (manufacturer: COSTAR) at 4° C. overnight. Unbound polypeptide was removed by washing three times (175 μl, buffer PBS/0.05% TWEEN). Potentially unspecific crossreactions were blocked by incubating the cavities with 150 μl of a 3% bovine serum albumin (BSA) solution in PBS. The blocked, emptied plate was dried at 37° C. for 30 min and stored at 4′ under desiccating conditions.
Microtiter plates prepared in this way were employed in quantitative detection of autoantibodies to mutated vimentin according to the principle of the indirect enzyme immunoassay. Detection of autoantibodies to CCP (citrullinated peptide) was carried out for comparison. For this purpose, samples of sera of healthy volunteers and/or patients having different diseases were diluted 1:100 with 1% BSA/PBS and incubated in the cavities for 30 minutes. Unbound serum antibodies are removed by repeatedly washing with PBS/0.05% TWEEN. Subsequently, enzyme-labeled detection antibodies (in particular peroxidase-conjugated anti-human IgG antibodies, 1:10 000 dilution) were incubated for 15 minutes.
After washing off the excess detection antibody, 100 μl of a substrate solution (TMB (3,3′,5,5′-tetramethylbenzidine) tablet, dissolved in 10 ml of 0.05 M phosphate-citrate buffer, with 8 ml of hydrogen peroxide being added shortly before use) were added for 15 minutes. Addition of 100 μl of 1 M HCl stopped the reaction, with the reaction product turning yellow. The intensity of the yellow stain was determined photometrically at 450 nm, with absorption being directly proportional to the autoantibody concentration searched for.

Mutated vimentin OD at 450 nm (serum number 1, Normal serum): 0.127
Mutated vimentin OD at 450 nm (serum number 2, Blood donor): 0.089
Mutated vimentin OD at 450 nm (serum number 3, Hepatitis): 0.107
Mutated vimentin OD at 450 nm (serum number 4, Borrelia arthritis): 0.167
Mutated vimentin OD at 450 nm (serum number 5, Rheumatoid arthritis): 0.784
Mutated vimentin OD at 450 nm (serum number 6, Rheumatoid arthritis): 0.984
Mutated vimentin OD at 450 nm (serum number 7, Rheumatoid arthritis): 2.456
Mutated vimentin OD at 450 nm (serum number 8, Rheumatoid arthritis): 1.709
Mutated vimentin OD at 450 nm (serum number 9, Rheumatoid arthritis): 1.342
B1: Mutated vimentin: recombinant, mutated variant of native vimentin (SEQ 9) expressed in E. coli, His-tag purified (protein)
chain: MSTRSVSSSSYRRMFRGTGTASRTSSSRSYVTTSTRTYSLRSALRTSTSRSLYYSSPGRVYATRSSYVRLRSSVTRVSLLQDSVDFSLADAINTEFKNTRTNEKVELQELNDRFANYIDKVRFLEQQNKILLAELEQLKGQGKSRLGDLYEEEMRELRRQVDQLTNDKARVEVERDNLAEDIMRLREKLQEEMLQREEAENTLQSFRQDVDNASLARLDLERKVESLQEEIAFLKKLHEEEIQELQAQIQEQHVQIDVDVSKPDLTAALRDVRQQYESVAAKNLQEAEEWYKSKFADLSEAANRNNDALRQAKQESTEYRRQVQSLTCEVDALKGTNESLERQMREMEENFAVEAANYQDTIGRLQDEIQNMKEEMARHLREYQDLLNVKMALDIEIATYRKLLEGEESRISLPLPNFSSLNLRETNLDSLPLVDTHSKRTLLIKTVETRDGQVINETSQHHDDLE
modifications: His-tag
